Results: the RNAGym collection of RNA variant scans (doi:10.1073/pnas.2313332121)
Variants at the background level are over-represented here.

B1: TPR 5TU (parent)
chain: GGAUCUUCUCGAUCUAACAAAAAAGACAAAUCUGCCACAAAGCUUGAGAGCAUCUUCGGAUGCAGAGGCGGCAGCCUUCGGUGGCGCGAUAGCGCCAACGUUCUCAACUAUGACACGCAAAACGCGUGCUCCGUUGAAUGGAGUUUAUCAUG

Variants of: B1
Experiment: polymerase ribozyme fitness, log enrichment relative to wild type (log ratio); higher = more active; in vitro selection for triplet polymerase activity
Outline: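 Both subunits of a heterodimeric triplet polymerase ribozyme were given their own mutant library, built by PCR and transcribed. Each library was annealed with a biotinylated primer, the partner subunit and triplets, incubated frozen at −7 °C, and its extended constructs gel-excised, captured on streptavidin beads and amplified by RT-PCR, all in one round done in triplicate. Fitness is the logarithm of genotype enrichment relative to wild-type enrichment, with replicates averaged by inverse-variance weighting. That logarithm is base 2, and Illumina-sequenced genotypes needed ≥10 input reads and ≥1 read per output.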

| Variant | polymerase ribozyme fitness (log ratio) |
| --- | --- |
| C99U A119C C125G U134G | -3.27 |
| C99U G117C | 0.786 |
| C93G C103G C123A | ≤ -4.2 |
| G94C G100C C131U G133C C149G | ≤ -4.2 |
| G100U A106C | ≤ -4.2 |
| C96U G141A G143A | ≤ -4.2 |
| C99A A106U C132G | ≤ -4.2 |
| G100A C114U A137U G140C | ≤ -4.2 |
| C96U U102G U144A A150U | ≤ -4.2 |
| C93A G124A | -2.59 |
| G94U G141C | -1.45 |
| C96A U139C | -3.61 |
| G94C U104G | -1.24 |
| C93U A107U U148A | ≤ -4.2 |
| C93U C116U | -0.9 |
| G100A C103G C116U G128U U130G | ≤ -4.2 |
| C93U G143U | -3.38 |
| C93U G133U | -3.7 |
| G94A A137C | -3.2 |
| C93U G128C | -3.31 |
| G94A C131U | 0.309 |
| G94A G143U | -3.57 |
| C96U A115U | -2.64 |
| C96U A115C | -2.68 |

| Variant | polymerase ribozyme fitness (log ratio) |
| --- | --- |
| C93U C118A U144G | -1.06 |
| C99U G100U | ≤ -4.2 |
| C96G G143C | -2.86 |
| A97G A98U | -0.253 |
| C96A A115U | -2.29 |
| C96A A115C | -0.888 |
| A97G G143A | -1.44 |
| C95U G141U | 0.762 |
| C99G G126A | -0.619 |
| G94C A97G C116A | -0.587 |
| C99A C131G | ≤ -4.2 |
| G94A C103G A150C | ≤ -4.2 |
| G100A G124A | ≤ -4.2 |
| A97G U101G | 0.358 |
| C96U G100A U127G | ≤ -4.2 |
| G94C G133A | -4.02 |
| G94C C108U A110U U135C | ≤ -4.2 |
| C99G A138C | ≤ -4.2 |
| C96U C131G | -2.66 |
| C95A C96A U104C A142C | -4.07 |
| C96G A121U A138C | ≤ -4.2 |
| C93G A107U | -4.14 |
| C93G A107G | ≤ -4.2 |
| C99G U146C C149G | ≤ -4.2 |

| Variant | polymerase ribozyme fitness (log ratio) |
| --- | --- |
| G92U U104G | -0.858 |
| G94C A120U G140C | ≤ -4.2 |
| C95U C123U | 0.509 |
| C93G C99U | ≤ -4.2 |
| C93A C95G | ≤ -4.2 |
| C95U U139G U148A | -3.14 |
| C96G A98U | -0.873 |
| A98G G133C | -1.69 |
| C93A C132A | ≤ -4.2 |
| C95U A107G G124U | ≤ -4.2 |
| C95U A115G G124U A142C | ≤ -4.2 |
| G94C G124U G143U | -3.6 |
| C95G A98G | -1.57 |
| C96A A106C | -0.591 |
| C93U C99G C108A C118A | ≤ -4.2 |
| C93G G143C | ≤ -4.2 |
| A98U C105U | 0.54 |
| A98G U101C G141U | 0.851 |
| C96U G143C U146C | -1.75 |
| G94C A106G | -1.31 |
| C93A C108G U134C G141C U151A | ≤ -4.2 |
| C93G A98U | -2.82 |
| C93U U139A U151G | ≤ -4.2 |
| G94C A150U | 1.09 |

| Variant | polymerase ribozyme fitness (log ratio) |
| --- | --- |
| A97G U130G | -2.77 |
| A97G G100A C103A | ≤ -4.2 |
| C99U U144A | -1.02 |
| C99A A107G A110C | ≤ -4.2 |
| U101A C105U C114A | -3.17 |
| C95G C96U A120U A122C U139G | -1.86 |
| G94C A122C | -0.988 |
| C93A A98U C125G C131U | -2.4 |
| C93U G94U A107C | ≤ -4.2 |
| C99G C118U U148A | ≤ -4.2 |
| C93A C103G A120C G136C | ≤ -4.2 |
| C93G C96U | -3.61 |
| G92U C105A C114G A142U | ≤ -4.2 |
| C93U C114A | -3.41 |
| G94U C108U | -3.54 |
| A97U A138C | ≤ -4.2 |
| C99A C118G A119C | -0.582 |
| G94C A137C C149U | -3.76 |
| C96U A119U G152C | -3.13 |
| C93U A142U | -1.68 |
| C95U U104G | -2.11 |
| G94U A147U | 0.0631 |
| G94U A147G | -1.51 |
| G94U G141C U144G | -1.83 |

| Variant | polymerase ribozyme fitness (log ratio) |
| --- | --- |
| C96A U151G | ≤ -4.2 |
| C96A U151C | -3.24 |
| C96A G133U | -3.9 |
| C96U A122G | -0.14 |
| C96A G140U | -3.47 |
| G94U U148C | -2.92 |
| C96G C114U | -2.18 |
| C95U U111G | ≤ -4.2 |
| C93G U148G | ≤ -4.2 |
| A98U A147C | 0.168 |
| C93G C118U C123U | -3.29 |
| C93U U144C | -1.07 |
| C99U G128A | ≤ -4.2 |
| C95U A97U C99U G133U A150G | ≤ -4.2 |
| C96U G126U A137C A138G | ≤ -4.2 |
| A98U U134G | -2.65 |
| G94C C105G C116A | -2.89 |
| G94C C116U G141C | ≤ -4.2 |
| C93U A119U G141A | -0.528 |
| G94C U127C | -2.45 |
| C93U A115G A121C G126U G143A | ≤ -4.2 |
| G94A C116G C123G | 0.258 |
| C93G G112C | ≤ -4.2 |
| C93U C123G A138C | ≤ -4.2 |

| Variant | polymerase ribozyme fitness (log ratio) |
| --- | --- |
| C99A U102G | ≤ -4.2 |
| G92U U101A A119U G143U | -3.62 |
| G100A A107U | ≤ -4.2 |
| C96U G143A | -0.236 |
| G92U U104G U109C | ≤ -4.2 |
| C93G C125G A150U | -4.06 |
| C93U A122U | -0.696 |
| C93A U130A | ≤ -4.2 |
| G94U C125U G143U | -4.16 |
| C96A A142U | -1.24 |
| C93U A137G C149U | -2.47 |
| G94A C132G A138G | ≤ -4.2 |
| C93G A97U A121G | ≤ -4.2 |
| A97U C108U A121G C132A | ≤ -4.2 |
| C95U U102G C105U | -2.98 |
| C93U A110G C118G U148C | ≤ -4.2 |
| C93U C114A U145C | ≤ -4.2 |
| C96A A115U A147C | -3.48 |
| C93U C99G G136A | -0.753 |
| C96G U130C | 0.873 |
| G94U A97G U127A A150U | ≤ -4.2 |
| C93U C95G | -2.26 |
| C93U C95U | -2.43 |
| C93A U135G | ≤ -4.2 |

| Variant | polymerase ribozyme fitness (log ratio) |
| --- | --- |
| C93U A106C | -1.75 |
| C99U G136A | 0.0423 |
| G94C G117U | 0.0157 |
| G94C U109G G112C A115G A137G | ≤ -4.2 |
| G94C A115U G143C | ≤ -4.2 |
| C96U A97G | -0.535 |
| C93A C105A | ≤ -4.2 |
| C93A A142G | -2.77 |
| C93G C103U U139A | ≤ -4.2 |
| C96A A113U G140A | ≤ -4.2 |
| C96U C118G U151G | ≤ -4.2 |
| C93U A110G | -3.25 |
| G92U U101G C131U | 0.547 |
| C93A C99G | -3.88 |
| C96A C118U | -1.8 |
| C93G G128U U145A | ≤ -4.2 |
| C95U A142G | -1.66 |
| C93A C118U | -3.29 |
| C93U A150G | -1.93 |
| G100A A137G | ≤ -4.2 |
| C93A A107G G152A | ≤ -4.2 |
| U101G A115G | -0.695 |
| A97C A98U U111G | -3.78 |
